Measured values published in PubChem BioAssay AID624296 (National Center for Advancing Translational Sciences (NCATS), 2012).
About 9,900 (2.8%) of roughly 350,000 compounds were called active. The inconclusive results got no clear call from the source; some entries with a clear call stand among them for comparison. Calls come from the whole dose curve; as a rule, active = well fitted activation curve with a large enough effect; inconclusive = small, poorly fitted or top-dose-only effect; inactive = no such curve, though single readings can be large or run the other way. Potencies of inconclusive entries are left out as doubtful fits.

Test: A quantitative high throughput screen for small molecules that induce DNA re-replication in MCF 10a normal breast cells. For activity, positive = re-replication: % of control where 0% means no effect. Note: nearly all actives have a fitted effect of over 50% in size.
Settings: MCF 10A DNA re-replication, Hoechst nuclear intensity, 48 h; activity, positive = re-replication: at 46.1 µM (top of the series)
Potency is the fitted concentration of half-maximal effect; tags give direction and shape of the fitted curve.

| SMILES | activity, positive = re-replication | Potency |
| --- | --- | --- |
| CCN(C(=O)CSc1nnc(-c2cccc(Cl)c2)n1N)c1c(N)n(Cc2ccccc2)c(=O)[nH]c1=O | inactive: -11.4% | – |
| O=C(Nc1ccccc1F)N1CCC(NC(=O)C23CC4CC(CC(C4)C2)C3)CC1 | inactive: 9.16% | – |
| COc1cc(OC)cc(C(=O)N[C@H](C(=O)OCc2cc(=O)oc3cc(C)ccc23)C(C)C)c1 | inactive: 9.5% | – |
| COc1ccc(N(C(=O)c2cnsn2)C(C(=O)NC2CCCCC2)c2ccncc2)cc1 (stereo unspecified) | – | inconclusive [activator, partial curve, poor fit] |
| Cc1ccc(N2C(=O)C(CN3CCCC3)C2c2ccccc2)cc1 (stereo unspecified) | – | inconclusive [activator, single point] |
| Cc1cccc(C)c1NC(=S)NCCc1ccccn1 | inactive: 16.5% | – |
| Cc1cccc(C2=NN(c3ccccc3)[C@H](CO)[C@H]2c2ccccc2)c1 | – | active: 2.31 µM |
| Cc1cc(NC(=O)Cc2ccsc2)ccc1Br | inactive: 9.59% | – |
| Cc1ccc(C(=O)C(C)CN2CCCCC2)cc1 (stereo unspecified) | inactive: 4.17% | – |
| CC(Sc1ncnc2sc(-c3ccccc3)cc12)C(=O)N1CCNC1=O (stereo unspecified) | inactive: -7.62% | – |
| c1nc(NCc2ccc3c(c2)OCO3)c2cc(-c3ccc4c(c3)OCCO4)ccc2n1 | – | active: 9.2 µM |
| CC1(C)C(C#N)=C(N)OC2=C1C(=O)CCC2 | – | inconclusive [activator, partial curve] |
| O=C(NCc1cccc(C(F)(F)F)c1)C1CC(c2cccc(F)c2)=NO1 (stereo unspecified) | – | inconclusive [activator, single point] |
| CC(C)N(Cc1ccccc1)C(=O)/C=C/c1ccccc1[N+](=O)[O-] | – | inconclusive [activator, single point] |
| Cc1c(S(=O)(=O)Nc2ccc3c(c2)OCCO3)c(=O)n(C)c(=O)n1C | inactive: -3.34% | – |
| C=CC[C@@H](CC(=O)N[C@@H](CO)Cc1ccccc1)C(=O)N[C@H](COC(=O)[C@H](CC=C)CC(=O)OC(C)(C)C)Cc1ccccc1 | inactive: -10.2% | – |
| CCOc1ccccc1OCC(=O)NNC(=S)NC1CCCCC1 | – | inconclusive [activator, partial curve, poor fit] |
| CCc1nnc(NC(=O)c2ncc(Cl)c(Cl)c2Cl)s1 | inactive: 21.9% | – |
| CCOc1ncccc1C(=O)NCc1ccc(OC)cc1 | – | inconclusive [activator, partial curve, poor fit] |
| CCOC(=O)c1c(C)[nH]c(/C(C)=N/O)c1C | – | inconclusive [activator, full curve, poor fit] |
| O=C(CCSCCc1ccccn1)Nc1c(F)cc(F)cc1Br | – | inconclusive [activator, single point] |
| COc1ccc(N2CC(O)=C(c3nc(-c4ccc(F)cc4)cs3)C2=N)cc1Cl | inactive: 10.5% | – |
| CCN(CC)CCCNC(=O)c1[nH]c2ccccc2c1Sc1ccc(Cl)cc1 | – | inconclusive [activator, single point] |
| Cn1c(=O)n(C)c2cc(NC(=O)CCc3ccccc3)c(Br)cc21 | – | inconclusive [activator, full curve, poor fit] |

| SMILES | activity, positive = re-replication | Potency |
| --- | --- | --- |
| CCOC(=O)c1c(N)sn(-c2ccccc2)c1=S | inactive: -3.78% | – |
| COc1ccc(-c2[nH]nc3c2C(c2ccsc2)C(C#N)=C(N)O3)cc1 (stereo unspecified) | – | inconclusive [activator, partial curve, poor fit] |
| Cc1cc(C)cc(NC(=O)CCC(=O)N2CCSc3ccccc32)c1 | – | inconclusive [activator, partial curve, poor fit] |
| CCCCN(CC)C(=O)c1cc2c(=O)n3cccc(C)c3nc2s1 | – | inconclusive [activator, single point] |
| COc1ccc(OC)c(S(=O)(=O)Nc2ccccc2F)c1 | – | inconclusive [activator, full curve, poor fit] |
| CN(C)c1ccc(C(=O)N(Cc2ccccc2)Cc2ccccc2)cc1 | inactive: 0.521% | – |
| Cc1ccccc1NC(=O)CSc1nc2cc3c(cc2cc1C)CCC3 | – | inconclusive [activator, partial curve, poor fit] |
| Cc1nc(N2CCCCC2)nc(N2CCCCC2)c1C=O | – | inconclusive [activator, partial curve, poor fit] |
| COCCNC(=O)/C(C#N)=C/C(C)=C/c1ccccc1 | inactive: 17.5% | – |
| O=C(Nc1ccc(Br)cc1)c1cccnc1N1CCCCC1 | – | inconclusive [activator, partial curve, poor fit] |
| O=C(Nc1ccc(F)c(Cl)c1)C1CC2CCC1C2 (stereo unspecified) | – | inconclusive [activator, partial curve, poor fit] |
| Cc1cccc(COc2ccccc2/C=N/Nc2ccc([N+](=O)[O-])cc2)c1 | – | active: 10.3 µM |
| CC12CCC(=O)N1C(C(=O)Nc1nc3c(F)cc(F)cc3s1)CS2 (stereo unspecified) | – | inconclusive [activator, partial curve, poor fit] |
| O=S(=O)(c1cccc(NC(=S)N2CCN(c3ccc(F)cc3)CC2)c1)C(F)F | – | inconclusive [activator, partial curve, poor fit] |
| O=[N+]([O-])c1cccc(/C=N/NC2=NCCCCC2)c1 | – | inconclusive [activator, full curve] |
| Cn1c(C(=O)O)cc2cc(Oc3ccccc3)ccc21 | – | inconclusive [activator, partial curve, poor fit] |
| Cc1nnsc1NC(=O)OCc1ccc(Cl)cc1Cl | inactive: -0.158% | – |
| O=C(Oc1ccccc1C(=O)Nc1ccccc1)c1ccc(Br)c([N+](=O)[O-])c1 | – | inconclusive [activator, single point] |
| CC(Oc1ccc(C#N)cc1)C(=O)NC1CCCC1 (stereo unspecified) | inactive: 1.33% | – |
| COc1cc2c(cc1OC)C(Nc1ccc(S(N)(=O)=O)cc1)=NC(C)(C)C2 | – | inconclusive [activator, single point] |
| O=C1C2C3C=CC(C4CC34)C2C(=O)N1/N=C/c1ccc(-c2ccccc2[N+](=O)[O-])o1 (stereo unspecified) | – | inconclusive [activator, partial curve, poor fit] |
| Cc1cc(F)ccc1S(=O)(=O)Nc1ccc(C(=O)N2CCCCCC2)cc1 | – | inconclusive [activator, single point] |
| CCCOc1ccc(C(=O)NCC(c2cccs2)N(C)C)cc1 (stereo unspecified) | inactive: 0.737% | – |
| Nc1nc(-c2cc3ccccc3o2)cs1 | – | inconclusive [activator, partial curve, poor fit] |

| SMILES | activity, positive = re-replication | Potency |
| --- | --- | --- |
| O=C(CN1C(=O)NC2(CCc3ccccc32)C1=O)c1ccc(Cl)cc1 (stereo unspecified) | – | inconclusive [activator, full curve, poor fit] |
| O=C(Nc1ccc(C(F)(F)F)cc1)N1CCN(c2ccnc3cc(Cl)ccc23)CC1 | – | inconclusive [activator, single point] |
| Cc1cc(OCC(=O)N2CCc3ccccc3C2)c(C)cc1Br | – | inconclusive [activator, single point] |
| CC1(CCc2ccccc2)NC(=O)N(CC(=O)Nc2ccc(OC(F)F)cc2)C1=O (stereo unspecified) | inactive: 3.63% | – |
| Cc1cc(C(=O)N2CCN(c3cccc(Cl)c3)CC2)c(C)o1 | – | inconclusive [activator, single point] |
| CCOC(=O)COc1ccccc1/C=N/Nc1nnc2c3ccccc3n(C)c2n1 | – | inconclusive [activator, single point] |
| CC(C)(C)NC(=O)CN(C(=O)Cn1nnc(-c2ccc(Cl)cc2)n1)C1CCN(Cc2ccccc2)CC1 | – | inconclusive [activator, partial curve, poor fit] |
| O=C(O)c1ccc(/C=C2\COc3ccccc3C2=O)cc1 | – | inconclusive [activator, single point] |
| O=C1CC[C@@H]2CC3(C[C@@H]4CCN1[C@H]24)Nc1cc([N+](=O)[O-])ccc1NC3=NC1CCCCC1 (stereo partly specified) | inactive: -22.4% | – |
| CCC(Oc1ccc(Br)cc1Cl)C(=O)Nc1nnc(C2CC2)s1 (stereo unspecified) | – | inconclusive [activator, single point] |
| COC(=O)c1c(NC(=O)c2nc3ccccc3s2)sc2c1CC(C)(C)NC2(C)C | inactive: 7.51% | – |
| Cc1ccc(Nc2nc3c(s2)CCC3)c(C)c1 | inactive: 9.82% | – |
| NCC(c1ccc(Cl)cc1Cl)c1c[nH]c2ccccc12 (stereo unspecified) | – | inconclusive [activator, single point] |
| O=C1C2=C(Nc3ccccc3SC2c2ccco2)c2ccccc21 (stereo unspecified) | – | active: 16.4 µM |
| CC(C)c1ccc(S(=O)(=O)N2CCN(C(=O)c3ccc(N4CCCC4)c([N+](=O)[O-])c3)CC2)cc1 | – | inconclusive [activator, single point] |
| CCCOc1ccc(N2CC(C(=O)NC3=NCCS3)CC2=O)cc1 (stereo unspecified) | – | inconclusive [activator, partial curve, poor fit] |
| CC1CN(C(=O)CSc2ncnc3sccc23)CC(C)O1 (stereo unspecified) | – | inconclusive [activator, partial curve, poor fit] |
| Cc1ccc(Cl)cc1NC(=S)N/N=C/c1cccc2ccccc12 | – | active: 8.2 µM |
| Cc1ccc(C)n1/N=C1/NC(=O)CS1 | inactive: 1.03% | – |
| O=C1C(c2ccnc3ccccc23)=C(O)c2ccccc21 | – | inconclusive [activator, single point] |
| C#CC[N+](C)(C)CCCCCCCC | inactive: 10.9% | – |
| COc1cccc(/C=N/NC(=O)c2cc3cc([N+](=O)[O-])ccc3s2)c1O | – | inconclusive [activator, partial curve] |
| CC(C)C(=O)NC(NC(=S)Nc1cccc2cccnc12)C(Cl)(Cl)Cl (stereo unspecified) | inactive: 6.04% | – |
